24 compounds from the supplement of paper PMC10037445 can be followed below.

Structures are written as SMILES. The full ranking holds about 2,900 compounds; the median of “NF-kB SEAP reporter activity, fold change vs agonist alone” is about 0.99, and the highest 2% start at about 2.6. Some of the results follow.

Experiment [1] relates to RAW-Dual. Kind of experiment: NF-kB SEAP reporter activity, fold change vs agonist alone; cytotoxicity flag (confluency mask): not cytotoxic; higher = enhanced NF-kB activity. The method, boiled down: (§1)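 Supernatant from RAW-Dual macrophages was read after 20 hours for IRF by QuantiLuc luminescence and for NF-κB by QuantiBlue absorbance at 620 nm. The cells (50,000 cells/well in DMEM, 384-well plates, 37 °C, 5% CO2) had received 50 nL of library stock by pin tool and, 1 h later, a PRR agonist. Reporter activity is expressed relative to agonist-alone wells as fold change, and wells were flagged cytotoxic if IncuCyte confluency was under 70% of agonist controls in both mask sets.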

Experiment [2] has as its system RAW-Dual. The experiment can be described thus: NF-kB SEAP reporter activity, fold change vs agonist alone; higher = enhanced NF-kB activity. The method, boiled down: as §1
Experiment [3] relates to RAW-Dual. Kind of experiment: NF-kB SEAP reporter activity, fold change vs agonist alone; cytotoxicity flag (confluency mask): cytotoxic (confluency <70% of control); higher = enhanced NF-kB activity. Summed up: as §1
The mark [4] stands for this setting: agonist: ODN 1826 (TLR9) 0.5 ug/mL.
Setting [5] is: agonist: Pam2CSK4 (TLR2/6) 0.1 ug/mL.
Setting [6] is: agonist: Pam3CSK4 (TLR2/1) 0.1 ug/mL.
The mark [7] stands for this setting: library stock concentration (final ~1000-fold dilution): 10 mM, cytotoxicity flag (confluency mask): not cytotoxic, agonist: Imiquimod (TLR7) […].
Where [8] appears, read: library stock concentration (final ~1000-fold dilution): 10 mM, cytotoxicity flag (confluency mask): not cytotoxic, agonist: MPLA (TLR4) […].
Setting [9] is: library stock concentration (final ~1000-fold dilution): 10 mM, cytotoxicity flag (confluency mask): cytotoxic (confluency <70% of control), agonist: Imiquimod (TLR7) […].
The mark [10] stands for this setting: library stock concentration (final ~1000-fold dilution): 10 mM, cytotoxicity flag (confluency mask): cytotoxic (confluency <70% of control), agonist: MPLA (TLR4) […].

As to `Nc1nc(=S)c2[nH]cnc2[nH]1` (library stock concentration (final ~1000-fold dilution): 10 mM), the “NF-kB SEAP reporter activity” value in experiment [1] (agonist: LPS (TLR4) 0.1 ug/mL) stood at 0.344; in experiment [1] (setting [4]), 0.37; in experiment [1] (setting [5]), 0.287; in experiment [1] (setting [6]) it was 0.369.
In the case of `Nc1nc(=S)c2[nH]cnc2[nH]1`, the figures for the “NF-kB SEAP reporter activity” value in experiment [2] (setting [7]) and in experiment [2] (setting [8]) were 0.91 and 0.608, respectively.
Take `O=C1c2ccccc2C(=O)c2c1ccc(O)c2O`: the entries for the “NF-kB SEAP reporter activity” value in experiment [2] (setting [7]) and in experiment [2] (setting [8]) were 1.13 and 1.17, respectively.
As to `O=C1c2ccccc2C(=O)c2c1ccc(O)c2O` (library stock concentration (final ~1000-fold dilution): 10 mM), the “NF-kB SEAP reporter activity” value in experiment [1] (agonist: LPS (TLR4) 0.1 ug/mL) turned out to be 1.16; in experiment [1] (setting [4]) it was 1.02; in experiment [1] (setting [5]) it was 1.18; in experiment [1] (setting [6]) it was 1.17.
Take `CC(/C=C1\SC(=S)N(CC(=O)O)C1=O)=C\c1ccccc1`: the “NF-kB SEAP reporter activity” value in experiment [2] (library stock concentration (final ~1000-fold dilution): 2 mM, cytotoxicity flag (confluency mask): not cytotoxic, agonist: Imiquimod (TLR7) […]) is 0.994; in experiment [2] (library stock concentration (final ~1000-fold dilution): 2 mM, cytotoxicity flag (confluency mask): not cytotoxic, agonist: MPLA (TLR4) […]), 1.08.
Consider `CC(/C=C1\SC(=S)N(CC(=O)O)C1=O)=C\c1ccccc1` (library stock concentration (final ~1000-fold dilution): 2 mM), for which the “NF-kB SEAP reporter activity” value in experiment [1] (agonist: LPS (TLR4) 0.1 ug/mL) was 1.41; in experiment [1] (setting [4]), 1.03; in experiment [1] (setting [5]), 1.11; in experiment [1] (setting [6]), 1.01.
As for `COC(=O)[C@]12CCC(C)(C)C[C@H]1[C@H]1C(=O)C=C3[C@@]4(C)C=C(C#N)C(=O)C(C)(C)[C@@H]4CC[C@@]3(C)[C@]1(C)CC2`, the “NF-kB SEAP reporter activity” value in experiment [2] (setting [9]) was found to be 0.137; in experiment [2] (setting [10]), 0.267.
For the compound `COC(=O)[C@]12CCC(C)(C)C[C@H]1[C@H]1C(=O)C=C3[C@@]4(C)C=C(C#N)C(=O)C(C)(C)[C@@H]4CC[C@@]3(C)[C@]1(C)CC2` (library stock concentration (final ~1000-fold dilution): 10 mM), the “NF-kB SEAP reporter activity” value in experiment [3] (agonist: LPS (TLR4) 0.1 ug/mL) came out at 0.302; in experiment [3] (setting [4]), 0.201; in experiment [3] (setting [5]), 0.0748; in experiment [3] (setting [6]) it was 0.173.
On to `CCCOc1ccn2c(C(C)=O)cc(-c3ccccc3S(C)(=O)=O)c2c1` (library stock concentration (final ~1000-fold dilution): 10 mM), for which the “NF-kB SEAP reporter activity” value came out at 1.3 in experiment [1] (agonist: LPS (TLR4) 0.1 ug/mL), 1.19 in experiment [1] (setting [4]), 1.06 in experiment [1] (setting [5]) and 1.37 in experiment [1] (setting [6]).
For the compound `CCCOc1ccn2c(C(C)=O)cc(-c3ccccc3S(C)(=O)=O)c2c1`, the “NF-kB SEAP reporter activity” value in experiment [2] (setting [7]) was 1.07; in experiment [2] (setting [8]), 1.24.
For `c1ccc(CNc2nc(NCc3ccccc3)c3ccccc3n2)cc1` the same measures were 0.134 and 0.232.
Regarding `c1ccc(CNc2nc(NCc3ccccc3)c3ccccc3n2)cc1` (library stock concentration (final ~1000-fold dilution): 10 mM), the “NF-kB SEAP reporter activity” value was found to be 0.213 in experiment [1] (agonist: LPS (TLR4) 0.1 ug/mL), 0.184 in experiment [1] (setting [4]), 0.0684 in experiment [1] (setting [5]) and 0.138 in experiment [1] (setting [6]).
The like results for `COC(=O)CCSCc1ccc(-c2onc(C)c2NC(=O)OC(C)c2ccccc2Cl)cc1` (configuration not stated) (library stock concentration (final ~1000-fold dilution): 10 mM) were, in that order, 1.23, 1.33, 1 and 1.24.
`COC(=O)CCSCc1ccc(-c2onc(C)c2NC(=O)OC(C)c2ccccc2Cl)cc1` (configuration not stated): the “NF-kB SEAP reporter activity” value in experiment [2] (setting [7]) and in experiment [2] (setting [8]) was 1.15 in each case.
For `NCC1OC(OC2C(CO)OC(OC3C(O)C(N)CC(N)C3OC3OC(CO)C(O)C(O)C3N)C2O)C(N)C(O)C1O.O=S(=O)(O)O` (configuration not stated), the “NF-kB SEAP reporter activity” value in experiment [2] (library stock concentration (final ~1000-fold dilution): 10 mM water, cytotoxicity flag (confluency mask): not cytotoxic, agonist: Imiquimod (TLR7) […]) is 0.946; in experiment [2] (library stock concentration (final ~1000-fold dilution): 10 mM water, cytotoxicity flag (confluency mask): not cytotoxic, agonist: MPLA (TLR4) […]), 1.03.
On to `NCC1OC(OC2C(CO)OC(OC3C(O)C(N)CC(N)C3OC3OC(CO)C(O)C(O)C3N)C2O)C(N)C(O)C1O.O=S(=O)(O)O` (configuration not stated) (library stock concentration (final ~1000-fold dilution): 10 mM water), for which the “NF-kB SEAP reporter activity” value was 1.05 in experiment [1] (agonist: LPS (TLR4) 0.1 ug/mL), 1.24 in experiment [1] (setting [4]), 1.27 in experiment [1] (setting [5]) and 1.03 in experiment [1] (setting [6]).
Regarding `O=C(NCCO)c1cccc(-c2cc(Nc3ccc(OC(F)(F)F)cc3)ncn2)c1` (library stock concentration (final ~1000-fold dilution): 10 mM), the “NF-kB SEAP reporter activity” value in experiment [1] (agonist: LPS (TLR4) 0.1 ug/mL) was 1.15; in experiment [1] (setting [4]), 0.796; in experiment [1] (setting [5]), 0.96; in experiment [1] (setting [6]) it was 1.03.
`O=C(NCCO)c1cccc(-c2cc(Nc3ccc(OC(F)(F)F)cc3)ncn2)c1`: the “NF-kB SEAP reporter activity” value in experiment [2] (setting [7]) was 1.09; in experiment [2] (setting [8]), 1.23.
For the compound `O=C(CS(=O)Cc1ccco1)NC/C=C\COc1cc(CN2CCCCC2)ccn1` (configuration not stated) (library stock concentration (final ~1000-fold dilution): 10 mM), the “NF-kB SEAP reporter activity” value in experiment [1] (agonist: LPS (TLR4) 0.1 ug/mL) came to 0.951; in experiment [1] (setting [4]), 0.952; in experiment [1] (setting [5]), 1.08; in experiment [1] (setting [6]), 0.932.
For the compound `O=C(CS(=O)Cc1ccco1)NC/C=C\COc1cc(CN2CCCCC2)ccn1` (configuration not stated), the “NF-kB SEAP reporter activity” value turned out to be 0.751 in experiment [2] (setting [7]) and 1.04 in experiment [2] (setting [8]).
As to `CC(C)COc1ccc(CNC(=O)N(Cc2ccc(F)cc2)C2CCN(C)CC2)cc1.CC(C)COc1ccc(CNC(=O)N(Cc2ccc(F)cc2)C2CCN(C)CC2)cc1.O=C(O)C(O)C(O)C(=O)O` (library stock concentration (final ~1000-fold dilution): 10 mM), the “NF-kB SEAP reporter activity” value stood at 0.205 in experiment [3] (agonist: LPS (TLR4) 0.1 ug/mL), 0.239 in experiment [3] (setting [4]), 0.0981 in experiment [3] (setting [5]) and 0.143 in experiment [3] (setting [6]).
For the compound `CC(C)COc1ccc(CNC(=O)N(Cc2ccc(F)cc2)C2CCN(C)CC2)cc1.CC(C)COc1ccc(CNC(=O)N(Cc2ccc(F)cc2)C2CCN(C)CC2)cc1.O=C(O)C(O)C(O)C(=O)O`, the “NF-kB SEAP reporter activity” value in experiment [2] (setting [9]) came to 0.496; in experiment [2] (setting [10]) it was 1.23.
For the compound `CN1CCC(=C2c3ccccc3CCc3cccnc32)CC1.O=C(O)/C=C\C(=O)O.O=C(O)/C=C\C(=O)O` (library stock concentration (final ~1000-fold dilution): 10 mM), the “NF-kB SEAP reporter activity” value came to 0.879 in experiment [1] (agonist: LPS (TLR4) 0.1 ug/mL), 0.716 in experiment [1] (setting [4]), 0.99 in experiment [1] (setting [5]) and 1.14 in experiment [1] (setting [6]).
`CN1CCC(=C2c3ccccc3CCc3cccnc32)CC1.O=C(O)/C=C\C(=O)O.O=C(O)/C=C\C(=O)O`: the “NF-kB SEAP reporter activity” value in experiment [2] (setting [7]) was 1.12; in experiment [2] (setting [8]), 0.904.
